# Assay results published in PMC6919601, “Identification of Plasmodium dipeptidyl aminopeptidase allosteric inhibitors by high throughput screening” (PLoS ONE, 2019).
# Out of some 110,000 compounds screened, about 230 (0.21%) showed an effect of 50% or more. The list shows a part of the results.
# Target: DPAP1 (Plasmodium falciparum, UniProt Q8IIJ9)
# Assay: primary screen, percent inhibition; read by cleavage of a fluorogenic dipeptide substrate; higher = more effect of the substance
# Set-up: species or system P. falciparum D10 trophozoite lysates; single well
# 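Further: 30 min substrate incubation versus DMSO and 10 µM JCP410 controls.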
# Sequence of DPAP1 (Q8IIJ9 whole entry, looked up): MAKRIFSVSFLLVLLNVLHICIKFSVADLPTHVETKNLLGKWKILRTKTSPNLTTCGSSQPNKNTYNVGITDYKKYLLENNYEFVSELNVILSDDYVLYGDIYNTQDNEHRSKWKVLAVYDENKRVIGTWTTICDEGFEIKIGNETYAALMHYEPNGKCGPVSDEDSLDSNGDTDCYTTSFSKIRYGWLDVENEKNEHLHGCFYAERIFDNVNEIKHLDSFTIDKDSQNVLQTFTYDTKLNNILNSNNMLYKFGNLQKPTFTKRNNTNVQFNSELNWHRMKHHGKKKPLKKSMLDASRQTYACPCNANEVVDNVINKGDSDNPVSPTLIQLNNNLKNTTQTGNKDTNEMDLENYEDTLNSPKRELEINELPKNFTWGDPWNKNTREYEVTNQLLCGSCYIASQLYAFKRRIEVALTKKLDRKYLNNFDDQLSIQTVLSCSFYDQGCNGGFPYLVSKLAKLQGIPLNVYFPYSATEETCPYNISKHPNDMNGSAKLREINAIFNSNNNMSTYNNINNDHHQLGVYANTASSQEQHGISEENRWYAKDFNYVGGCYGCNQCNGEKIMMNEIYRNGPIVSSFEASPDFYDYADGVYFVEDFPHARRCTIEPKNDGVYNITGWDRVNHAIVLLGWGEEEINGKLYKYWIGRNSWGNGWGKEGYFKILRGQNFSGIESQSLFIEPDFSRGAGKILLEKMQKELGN
row,SMILES,% Inhibition @ 10 uM
1,COCCCN1C(=O)C(O)=C(C(=O)c2ccc3c(c2)CC(C)O3)C1c1ccccc1 (stereo not drawn),-4.06%
2,COc1ccc(-c2c(C#N)c(N)nc3c2c(=O)n(C)c(=O)n3C)cc1O,-1.8%
3,Cc1ccc(Cn2cnc3ccccc32)cc1C,-0.413%
4,Cc1ccc2oc(-c3ccc(C(C)C)cc3)c(O)c(=O)c2c1,0.0539%
5,CCN1CCCC1CNc1nc2ccc(C(=O)c3ccccc3)cc2n2cnnc12 (stereo not drawn),-3.61%
6,CCOc1ccccc1CNCc1c(C(=O)O)c(C)n(Cc2ccccc2C)c1C,-0.23%
7,COc1cc(CNC(C)(C)C)ccc1OCC(=O)NC(C)(C)C,0.605%
8,O=C(NC1CCCCC1)N1CC=CCC1,1.29%
9,CNC(=O)C1c2ccccc2-c2ccccc2CS1(=O)=O (stereo not drawn),-14.4%
10,Cc1ccc(/N=C2/C=C(O)CC(C)(C)C2)c(N)c1,0.673%
11,Cc1ccc(CNC(=O)c2ccc(Cl)cc2)c(S)n1,2.48%
12,c1c2c(cc3c1OCCO3)C1CN(C2)Cc2cc3c(cc21)OCCO3,-4.52%
13,N#Cc1c(NC(=O)c2cccs2)sc2c1CCCCC2,2.36%
14,CC(C)N1C(=O)S/C(=C/c2ccccc2Cl)C1=O,3.5%
15,CC(=O)N1c2ccccc2CCc2ccc(N)cc21,6.7%
16,CC(C)(C)C1CCc2c(sc(NC(=O)c3ccco3)c2C(=O)N2CCCC2)C1 (stereo not drawn),2.45%
17,Cc1ccc[n+](CC(=O)Nc2nc3ccccc3s2)c1,5.31%
18,COc1cc(CNCCc2c[nH]c3ccccc23)cc(OC)c1O,-1.6%
19,Cc1ccc(N(CC(=O)N2CCN(C(c3ccccc3)c3ccccc3)CC2)S(C)(=O)=O)cc1,2.33%
20,O=C(Cc1ccccc1)Nc1cc(C(=O)O)c(NC(=O)Cc2ccccc2)cc1C(=O)O,20%
21,O=C(Nc1cccc(NC(=O)c2ccccc2Cl)c1)c1ccc(F)cc1,-3.75%
22,COc1cc(-c2nc3n(n2)C(c2ccccc2)C2=C(O)CC(C)(C)CC2=N3)cc(OC)c1OC (stereo not drawn),1.96%
23,CCO/C(O)=C1\C(C)=NC2=C(C(=O)CCC2)C1c1ccc2c(c1)OCO2 (stereo not drawn),-1.75%
24,CCC1CCc2c(sc(NC(=O)c3c(-c4ccccc4)noc3C)c2C(N)=O)C1 (stereo not drawn),4.84%
25,NCC(c1ccccc1)(c1ccccc1)c1ccccc1,0.343%
26,Cc1ccc2cc3cc(C(=O)NCCC4=CCCCC4)oc3nc2c1,-9.18%

row,SMILES,% Inhibition @ 10 uM
1,CCCC1=C(C(=O)OCC)C(c2ccccc2F)C(C#N)=C(N)O1 (stereo not drawn),6.18%
2,Cc1c(CCC(=O)O)c(=O)oc2cc3oc4c(c3cc12)CCCC4,8.12%
3,COc1ccc(CCNS(=O)(=O)c2c(C)nc(O)nc2O)cc1OC,5.85%
4,COC(=O)c1ccc(/C=c2\sc3nc(-c4ccccc4OC)nn3c2=O)cc1,0.561%
5,CC1CCN(C(=O)C2CCN(S(=O)(=O)N3CCC4(CC3)OCCO4)CC2)CC1,-1.21%
6,N#CCNC(=O)C(CCSc1ccccn1)NC(=O)c1ccccc1 (stereo not drawn),-0.214%
7,Cc1ccc(S(=O)(=O)N(CC(=O)N2CCOCC2)c2cc(Cl)cc(Cl)c2)cc1,-3.49%
8,CCN1CCCC1CNC(=O)c1ccc(-n2c(C)cc3c2CCCC3)cc1 (stereo not drawn),-7.95%
9,COc1ccc(C2=NN(CC(=O)NC(C)c3ccccc3)C(=O)CC2)cc1 (stereo not drawn),-9.6%
10,Nc1nc2ccc(C3CCCCC3)cc2s1,5.03%
11,O=C(CN1C(=O)c2ccccc2S1(=O)=O)Nc1ccccc1Br,-2.27%
12,CC(=O)c1c(C)nn(-c2ccccc2)c1C,-4.6%
13,COC(=O)c1ccc(/C=C2\SC(=O)N(CC(=O)N3CCOCC3)C2=O)cc1,1.52%
14,CN(c1ccccc1)S(=O)(=O)c1cccc(C(=O)O)c1,-3.23%
15,NC(=O)NC(Cc1ccccc1)c1ccccc1 (stereo not drawn),-3.32%
16,CCOC(=O)c1sc(NC(=O)c2cc(-c3ccc(O)cc3)on2)c(C(=O)OCC)c1C,-1.96%
17,CCN(CC)S(=O)(=O)c1ccc([N+](=O)[O-])cc1,-1.8%
18,O=C(O)C1C2C=CC(C2)C1C(=O)N1CCN(Cc2ccccc2)CC1 (stereo not drawn),2.49%
19,CC1CC(O)CCN1C(C)c1ccccc1 (stereo not drawn),-2.32%
20,O=C(O)C(c1ccccc1)C(c1ccccc1)c1ccccc1 (stereo not drawn),0.518%
21,COc1ccc(CC(=N)NOC(=O)c2cccs2)cc1,-3.06%
22,CNC(=O)c1ccc(-n2nc(C)cc2-c2ccccc2)cc1,3.66%
23,CS(=O)(=O)N(CC(=O)Nc1ccccc1Cl)c1cc(Cl)cc(Cl)c1,-4.71%
24,CN(Cc1ccc(F)cc1F)CC(O)c1ccccc1 (stereo not drawn),-4.95%
25,Cc1ccc(C2=NC(c3ccsc3)NC(c3ccccc3O)C2)cc1 (stereo not drawn),-2.45%
